The list shows a part of the results.
Legend:
Test in all cases: glycan array binding signal (z-score within array); higher = stronger binding
Conditions in all cases: glycan notation: IUPAC condensed, linker removed
[1] = target: Fuc(a1-2)Gal6S(b1-3)GlcNAc6S
Method in brief: (§1)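 Glycan array data were curated from 3228 arrays in the Consortium for Functional Glycomics database and kept only where the protein sequence was available. Glycan names were converted to IUPAC-condensed notation, and columns mapping to the same glycan were averaged. The binding signal is a within-array Z-score, averaged across arrays of the same protein sequence at different concentrations or buffers and across linkers. Negative Z-scores can be read as non-binding.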

Fuc(a1-2)Gal6S(b1-4)Glc = target: Fuc(a1-2)Gal6S(b1-4)Glc
Method in brief: as §1

[2] = target: Fuc(a1-2)Gal6S(b1-4)Glc6S
Method in brief: as §1

Fuc(a1-2)[Gal(a1-3)]Gal = target: Fuc(a1-2)[Gal(a1-3)]Gal
Method in brief: as §1

[3] = target: Fuc(a1-2)[Gal(a1-3)]Gal(b1-3)GalNAc
Method in brief: as §1

[4] = target: Fuc(a1-2)[Gal(a1-3)]Gal(b1-3)GalNAc(b1-3)Gal(a1-4)Gal(b1-4)Glc
Method in brief: as §1

[5] = target: Fuc(a1-2)[Gal(a1-3)]Gal(b1-3)GlcNAc
Method in brief: as §1

[6] = target: Fuc(a1-2)[Gal(a1-3)]Gal(b1-3)GlcNAc(b1-2)Man(a1-3)[Fuc(a1-2)[Gal(a1-3)]Gal(b1-3)GlcNAc(b1-2)Man(a1-6)]Man(b1-4)GlcNAc(b1-4)GlcNAc
Method in brief: as §1

[7] = target: Fuc(a1-2)[Gal(a1-3)]Gal(b1-3)GlcNAc(b1-2)Man(a1-3)[Fuc(a1-2)[Gal(a1-3)]Gal(b1-3)GlcNAc(b1-2)Man(a1-6)]Man(b1-4)GlcNAc(b1-4)[Fuc(a1-6)]GlcNAc
Method in brief: as §1

[8] = target: Fuc(a1-2)[Gal(a1-3)]Gal(b1-3)GlcNAc(b1-3)GalNAc
Method in brief: as §1

[9] = target: Fuc(a1-2)[Gal(a1-3)]Gal(b1-3)GlcNAc(b1-6)GalNAc
Method in brief: as §1

[10] = target: Fuc(a1-2)[Gal(a1-3)]Gal(b1-4)Glc
Method in brief: as §1

[11] = target: Fuc(a1-2)[Gal(a1-3)]Gal(b1-4)GlcNAc
Method in brief: as §1

[12] = target: Fuc(a1-2)[Gal(a1-3)]Gal(b1-4)GlcNAc(b1-2)Man
Method in brief: as §1

[13] = target: Fuc(a1-2)[Gal(a1-3)]Gal(b1-4)GlcNAc(b1-2)Man(a1-3)[Fuc(a1-2)[Gal(a1-3)]Gal(b1-4)GlcNAc(b1-2)Man(a1-6)]Man(b1-4)GlcNAc(b1-4)GlcNAc
Method in brief: as §1

[14] = target: Fuc(a1-2)[Gal(a1-3)]Gal(b1-4)GlcNAc(b1-2)Man(a1-3)[Fuc(a1-2)[Gal(a1-3)]Gal(b1-4)GlcNAc(b1-2)Man(a1-6)]Man(b1-4)GlcNAc(b1-4)[Fuc(a1-6)]GlcNAc
Method in brief: as §1

[15] = target: Fuc(a1-2)[Gal(a1-3)]Gal(b1-4)GlcNAc(b1-3)GalNAc
Method in brief: as §1

[16] = target: Fuc(a1-2)[Gal(a1-3)]Gal(b1-4)GlcNAc(b1-3)[Fuc(a1-2)[Gal(a1-3)]Gal(b1-4)GlcNAc(b1-6)]GalNAc
Method in brief: as §1

[17] = target: Fuc(a1-2)[Gal(a1-3)]Gal(b1-4)GlcNAc(b1-6)GalNAc
Method in brief: as §1

[18] = target: Fuc(a1-2)[Gal(a1-3)]Gal(b1-4)[Fuc(a1-3)]Glc
Method in brief: as §1

[19] = target: Fuc(a1-2)[Gal(a1-3)]Gal(b1-4)[Fuc(a1-3)]GlcNAc
Method in brief: as §1

[20] = target: Fuc(a1-2)[Gal(a1-3)]Gal(b1-4)[Fuc(a1-3)]GlcNAc(b1-3)GalNAc
Method in brief: as §1

[21] = target: Fuc(a1-2)[Gal(a1-4)]Gal(b1-4)GlcNAc
Method in brief: as §1

[22] = target: Fuc(a1-2)[GalNAc(a1-3)]Gal
Method in brief: as §1

[23] = target: Fuc(a1-2)[GalNAc(a1-3)]Gal(b1-3)GalNAc(a1-3)[Fuc(a1-2)]Gal(b1-4)GlcNAc
Method in brief: as §1

[24] = target: Fuc(a1-2)[GalNAc(a1-3)]Gal(b1-3)GalNAc(b1-3)Gal(a1-4)Gal(b1-4)Glc
Method in brief: as §1

[25] = target: Fuc(a1-2)[GalNAc(a1-3)]Gal(b1-3)GlcNAc
Method in brief: as §1

[26] = target: Fuc(a1-2)[GalNAc(a1-3)]Gal(b1-3)GlcNAc(b1-2)Man(a1-3)[Fuc(a1-2)[GalNAc(a1-3)]Gal(b1-3)GlcNAc(b1-2)Man(a1-6)]Man(b1-4)GlcNAc(b1-4)GlcNAc
Method in brief: as §1

[27] = target: Fuc(a1-2)[GalNAc(a1-3)]Gal(b1-3)GlcNAc(b1-2)Man(a1-3)[Fuc(a1-2)[GalNAc(a1-3)]Gal(b1-3)GlcNAc(b1-2)Man(a1-6)]Man(b1-4)GlcNAc(b1-4)[Fuc(a1-6)]GlcNAc
Method in brief: as §1

[28] = target: Fuc(a1-2)[GalNAc(a1-3)]Gal(b1-3)GlcNAc(b1-3)GalNAc
Method in brief: as §1

[29] = target: Fuc(a1-2)[GalNAc(a1-3)]Gal(b1-3)GlcNAc(b1-6)GalNAc
Method in brief: as §1

[30] = target: Fuc(a1-2)[GalNAc(a1-3)]Gal(b1-4)Glc
Method in brief: as §1

[31] = target: Fuc(a1-2)[GalNAc(a1-3)]Gal(b1-4)GlcNAc
Method in brief: as §1

[32] = target: Fuc(a1-2)[GalNAc(a1-3)]Gal(b1-4)GlcNAc(b1-2)Man
Method in brief: as §1

[33] = target: Fuc(a1-2)[GalNAc(a1-3)]Gal(b1-4)GlcNAc(b1-2)Man(a1-3)[Fuc(a1-2)[GalNAc(a1-3)]Gal(b1-4)GlcNAc(b1-2)Man(a1-6)]Man(b1-4)GlcNAc(b1-4)GlcNAc
Method in brief: as §1

[34] = target: Fuc(a1-2)[GalNAc(a1-3)]Gal(b1-4)GlcNAc(b1-2)Man(a1-3)[Fuc(a1-2)[GalNAc(a1-3)]Gal(b1-4)GlcNAc(b1-2)Man(a1-6)]Man(b1-4)GlcNAc(b1-4)[Fuc(a1-6)]GlcNAc
Method in brief: as §1

[35] = target: Fuc(a1-2)[GalNAc(a1-3)]Gal(b1-4)GlcNAc(b1-3)Gal(b1-4)GlcNAc
Method in brief: as §1

[36] = target: Fuc(a1-2)[GalNAc(a1-3)]Gal(b1-4)GlcNAc(b1-3)Gal(b1-4)GlcNAc(b1-3)Gal(b1-4)GlcNAc
Method in brief: as §1

[37] = target: Fuc(a1-2)[GalNAc(a1-3)]Gal(b1-4)GlcNAc(b1-3)GalNAc
Method in brief: as §1

[38] = target: Fuc(a1-2)[GalNAc(a1-3)]Gal(b1-4)GlcNAc(b1-3)[Fuc(a1-2)[GalNAc(a1-3)]Gal(b1-4)GlcNAc(b1-6)]GalNAc
Method in brief: as §1

[39] = target: Fuc(a1-2)[GalNAc(a1-3)]Gal(b1-4)GlcNAc(b1-6)GalNAc
Method in brief: as §1

[40] = target: Fuc(a1-2)[GalNAc(a1-3)]Gal(b1-4)[Fuc(a1-3)]GlcNAc
Method in brief: as §1

[41] = target: Fuc(a1-2)[GalNAc(a1-3)]Gal(b1-4)[Fuc(a1-3)]GlcNAc(b1-3)GalNAc
Method in brief: as §1

[42] = target: Fuc(a1-2)[GalNAc(a1-4)]Gal(b1-4)GlcNAc
Method in brief: as §1

[43] = target: Fuc(a1-2)[GalNAc(b1-3)]Gal
Method in brief: as §1

B1: SBD-G4S3-Fc (protein)
chain: MASIPSSASVQLDSYNYDGSTFSGKIYVKNIAYSKKVTVVYADGSDNWNNNGNIIAASFSGPISGSNYEYWTFSASVKGIKEFYIKYEVSGKTYYDNNNSANYQVSTGGGGSGGGGSGGGGSEFVPRDCGCKPCICTVPEVSSVFIFPPKPKDVLTITLTPKVTCVVVDISKDDPEVQFSWFVDDVEVHTAQTQPREEQFNSTFRSVSELPIMHQDWLNGKEFKCRVNSAAFPAPIEKTISKTKGRPKAPQVYTIPPPKEQMAKDKVSLTCMITDFFPEDITVEWQWNGQPAENYKNTQPIMDTDGSYFVYSKLNVQKSNWEAGNTFTCSVLHEGLHNHHTEKSLSHSPGAA
glycan array binding signal (z-score) [1]: -0.064
glycan array binding signal (z-score) (Fuc(a1-2)Gal6S(b1-4)Glc): 0.11
glycan array binding signal (z-score) [2]: -0.103
glycan array binding signal (z-score) (Fuc(a1-2)[Gal(a1-3)]Gal): -0.16
glycan array binding signal (z-score) [3]: -0.326
glycan array binding signal (z-score) [4]: 0.044
glycan array binding signal (z-score) [5]: -0.213
glycan array binding signal (z-score) [6]: -0.026
glycan array binding signal (z-score) [7]: 0.186
glycan array binding signal (z-score) [8]: -0.366
glycan array binding signal (z-score) [9]: -0.211
glycan array binding signal (z-score) [10]: -0.083
glycan array binding signal (z-score) [11]: -0.379
glycan array binding signal (z-score) [12]: -0.093
glycan array binding signal (z-score) [13]: -0.022
glycan array binding signal (z-score) [14]: 0.297
glycan array binding signal (z-score) [15]: -0.154
glycan array binding signal (z-score) [16]: -0.465
glycan array binding signal (z-score) [17]: -0.238
glycan array binding signal (z-score) [18]: -0.033
glycan array binding signal (z-score) [19]: -0.324
glycan array binding signal (z-score) [20]: -0.371
glycan array binding signal (z-score) [21]: -0.203
glycan array binding signal (z-score) [22]: -0.286
glycan array binding signal (z-score) [23]: 5.6
glycan array binding signal (z-score) [24]: 0.07
glycan array binding signal (z-score) [25]: -0.124
glycan array binding signal (z-score) [26]: -0.372
glycan array binding signal (z-score) [27]: -0.163
glycan array binding signal (z-score) [28]: 0.304
glycan array binding signal (z-score) [29]: -0.143
glycan array binding signal (z-score) [30]: -0.287
glycan array binding signal (z-score) [31]: -0.292
glycan array binding signal (z-score) [32]: -0.333
glycan array binding signal (z-score) [33]: 0.007
glycan array binding signal (z-score) [34]: -0.364
glycan array binding signal (z-score) [35]: -0.223
glycan array binding signal (z-score) [36]: 0.303
glycan array binding signal (z-score) [37]: -0.187
glycan array binding signal (z-score) [38]: -0.2
glycan array binding signal (z-score) [39]: -0.206
glycan array binding signal (z-score) [40]: 0.004
glycan array binding signal (z-score) [41]: -0.352
glycan array binding signal (z-score) [42]: 0.1
glycan array binding signal (z-score) [43]: -0.002

Source: the supplement of paper PMC8728848
